In all, about 350,000 compounds went through this assay and about 31,000 (8.9%) were called active. Inconclusive results, whose numbers are uncertain, are shown with a selection of clear calls. Calls follow the shape of the dose curve; as a rule, active = well fitted inhibition curve with a large enough effect; inconclusive = small, poorly fitted or top-dose-only effect; inactive = no such curve, though single readings can be large or run the other way. Potencies of inconclusive entries are doubtful fits and often do not repeat.
What follows are compounds tested against Histone-lysine N-methyltransferase EHMT2 (Homo sapiens) (UniProt Q96KQ7) (assay: qHTS Assay for Inhibitors of Histone Lysine Methyltransferase G9a). Settings: G9a H3K9 monomethylation, AlphaScreen, 2 h; activity, negative = inhibition: at 59 µM (top of the series) unless noted.
Sequence of UniProt Q96KQ7 (Q96KQ7 whole entry, looked up): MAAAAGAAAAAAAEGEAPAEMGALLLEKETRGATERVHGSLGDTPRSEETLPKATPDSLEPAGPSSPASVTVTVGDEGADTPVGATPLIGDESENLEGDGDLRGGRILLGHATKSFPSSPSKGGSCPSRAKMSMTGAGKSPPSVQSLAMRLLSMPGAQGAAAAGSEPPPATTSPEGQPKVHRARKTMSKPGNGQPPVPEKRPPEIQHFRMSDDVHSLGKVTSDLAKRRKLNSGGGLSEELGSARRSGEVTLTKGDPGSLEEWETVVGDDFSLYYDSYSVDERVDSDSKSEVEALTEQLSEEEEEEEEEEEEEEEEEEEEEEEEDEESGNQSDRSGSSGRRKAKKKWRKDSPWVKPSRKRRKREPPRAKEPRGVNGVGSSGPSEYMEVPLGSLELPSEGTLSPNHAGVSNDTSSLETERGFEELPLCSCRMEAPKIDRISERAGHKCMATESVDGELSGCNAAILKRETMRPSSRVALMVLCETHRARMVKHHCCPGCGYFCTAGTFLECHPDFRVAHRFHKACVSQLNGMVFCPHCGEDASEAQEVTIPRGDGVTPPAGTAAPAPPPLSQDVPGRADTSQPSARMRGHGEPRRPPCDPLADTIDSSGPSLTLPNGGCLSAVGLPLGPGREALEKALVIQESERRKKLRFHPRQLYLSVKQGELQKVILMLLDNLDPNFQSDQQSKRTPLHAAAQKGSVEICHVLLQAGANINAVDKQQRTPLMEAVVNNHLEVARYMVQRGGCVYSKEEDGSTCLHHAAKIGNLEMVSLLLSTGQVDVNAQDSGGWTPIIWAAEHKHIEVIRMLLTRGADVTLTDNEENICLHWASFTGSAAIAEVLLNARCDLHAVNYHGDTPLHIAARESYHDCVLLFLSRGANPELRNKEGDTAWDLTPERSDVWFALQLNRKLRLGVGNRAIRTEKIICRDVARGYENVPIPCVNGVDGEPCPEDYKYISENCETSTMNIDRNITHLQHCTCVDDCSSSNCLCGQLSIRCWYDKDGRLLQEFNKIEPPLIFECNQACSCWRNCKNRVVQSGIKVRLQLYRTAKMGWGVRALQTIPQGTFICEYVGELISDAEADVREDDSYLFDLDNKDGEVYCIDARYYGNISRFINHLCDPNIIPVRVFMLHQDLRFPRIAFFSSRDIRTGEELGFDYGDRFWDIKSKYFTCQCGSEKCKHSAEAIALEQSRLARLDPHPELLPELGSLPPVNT
Procedure, shortened: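 Quantitative HTS format: methyltransferase activity on a biotin-tagged H3K9 peptide is measured by AlphaScreen, using a rabbit anti-monomethyl-H3K9 antibody with streptavidin donor and anti-IgG acceptor beads. Final levels are 20 nM enzyme, 500 nM peptide, 20 uM SAM; 2 h RT.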
With `O=C(O)CCCCCN1C(=O)C(O)=C(C(=O)/C=C/c2ccccc2)C1c1cccc([N+](=O)[O-])c1` (stereo not given) the Potency was active: 44.7 µM.
`CSc1oc(-c2ccc(F)cc2)nc1S(=O)(=O)c1ccc(F)cc1` was tested, and the Potency was inconclusive: 89.1 µM [inhibitor, single point].
`CCC(c1nnnn1C(C)(C)CC)N(CCN1CCOCC1)Cc1cc2cc(C)ccc2[nH]c1=O` (stereo not given) was tested, and the Potency was inconclusive: 89.1 µM [inhibitor, single point].
With `O=C(CCC1CCCCC1)N1CCN(Cc2ccc3c(c2)OCO3)CC1` the Potency was inconclusive: 44.7 µM [inhibitor, partial curve, poor fit].
With `COC(=O)c1ccc2c(=O)n(-c3ccccc3)c(SCN3C(=O)c4ccccc4C3=O)nc2c1` the Potency was active: 28.2 µM.
`Cc1ccc(S(=O)(=O)CCC(=O)c2ccc(O)cc2O)cc1` was tested, and the Potency was active: 39.8 µM.
With `Cc1ccccc1NC(=S)N(CCN1CCCCCC1)Cc1cccs1` the Potency was inconclusive: 79.4 µM [inhibitor, single point].
For `Cc1[nH]n(-c2cccc3ccccc23)c(=O)c1/C=N/c1sc2c(c1C#N)CCC2`, the activity, negative = inhibition was inconclusive: -57.1% [inhibitor].
For `CCN(CC)S(=O)(=O)c1ccc(OC)c(NC(=S)Nc2ccc(C)c(C)c2)c1`, the “activity, negative = inhibition” value was inactive: 23.4%.
With `O=C(O)c1ccccc1C(=O)Nn1cnnc1` the “activity, negative = inhibition” value was inactive: -7.91% [at 102 µM].
In the case of `CC1=CC(C#N)(C#N)C(C#N)(C#N)C(c2ccccc2)N1` (stereo not given), the Potency is reported as inconclusive: 79.4 µM [inhibitor, single point].
`C[C@H](CCC(=O)O)[C@H]1CC[C@@H]2[C@@H]3[C@@H](O)C[C@H]4C[C@@H](O)CC[C@@]4(C)[C@H]3CC[C@@]21C` was tested, and the “activity, negative = inhibition” value was inactive: 25.9% [at 21.5 µM].
In the case of `Cc1cc(C)cc(NC(=O)CN2CCC(NC(=O)c3cccc(F)c3)CC2)c1`, the “activity, negative = inhibition” value is reported as inactive: -2.76% [at 102 µM].
`CN1CCN(C(=O)c2sc(=S)n(-c3ccccc3)c2N)CC1` was tested, and the Potency was inconclusive: 1.12 µM [inhibitor, partial curve, poor fit].
In the case of `CCN(CC)C(=O)CSc1nnc2nnc3cc(OC)ccc3n12`, the Potency is reported as active: 35.5 µM.
In the case of `CCN(CC)Cc1cc(NC2=NS(=O)(=O)c3ccccc32)ccc1OC(=O)C(C)C`, the Potency is reported as inconclusive: 89.1 µM [inhibitor, single point].
In the case of `O=[N+]([O-])c1ccc2c(c1)C(N1CCOCC1)/C(=C/COc1ccc3ccccc3c1Br)O2` (stereo not given), the activity, negative = inhibition is reported as inconclusive: -148% [inhibitor].
In the case of `CC(NCc1ccccc1O)c1ccccc1` (stereo not given), the “activity, negative = inhibition” value is reported as inactive: 20.3% [at 102 µM].
In the case of `CCC(=O)c1ccc(OCCn2cnc3ccccc32)cc1`, the activity, negative = inhibition is reported as inactive: 11.4% [at 12.7 µM].
In the case of `COCCN(C(=O)CSc1nnc(C)n1Cc1ccccc1)c1c(N)n(CC(C)C)c(=O)[nH]c1=O`, the “activity, negative = inhibition” value is reported as inactive: 3.24% [at 102 µM].
For `CCOc1cccc(-c2nn3c(-c4ccccn4)nnc3s2)c1`, the “activity, negative = inhibition” value was inactive: -13.9%.
`CC(C)Oc1ccc(CCc2nnc(SCC(=O)O)n2-c2ccccc2)cc1` was tested, and the Potency was inconclusive: 89.1 µM [inhibitor, single point].
`O=C(Nc1ccccn1)C1CCCN(c2ncnc3c2nc2n3CCCCC2)C1` (stereo not given) was tested, and the “activity, negative = inhibition” value was inactive: -8.1% [at 102 µM].
For `CCN=C1NN=C(c2cc(C)n(CCc3ccccc3)c2C)CS1`, the Potency was inconclusive: 31.6 µM [inhibitor, single point].
`O=C(CCn1cnc(-c2ccccc2)c1-c1ccccc1)N/N=C/c1ccc(O)cc1` was tested, and the Potency was inconclusive: 20 µM [inhibitor, single point].
With `Cc1n[nH]c(=O)c2c(NC(=O)CSc3nncn3C(C)C)oc(C)c12` the Potency was inconclusive: 6.31 µM [inhibitor, single point].
`COCCNC(=O)C(c1ccc(C)o1)N(Cc1ccco1)C(=O)c1snc(C(N)=O)c1N` (stereo not given) was tested, and the Potency was inconclusive: 39.8 µM [inhibitor, single point].
With `O=C1C(=O)N(CCCn2ccnc2)C(c2ccccn2)/C1=C(/O)c1ccccc1` (stereo not given) the Potency was active: 50.1 µM.
For `Cn1nc(-c2ccc(Cl)cc2)c2cc(C(=O)N3CCN(C(=O)c4ccco4)CC3)sc21`, the Potency was inconclusive: 79.4 µM [inhibitor, partial curve, poor fit].
`COc1cc(NC(=O)c2cc(C3CC3)nc3c2c(C)nn3-c2ccc(C)cc2)cc(OC)c1` was tested, and the “activity, negative = inhibition” value was inactive: 5.63%.
For `Cc1cc(C)n(-c2ccc(Oc3ccccc3)c(S(=O)(=O)O)c2)n1`, the Potency was inconclusive: 89.1 µM [inhibitor, partial curve, poor fit].
For `Cc1cccc(C)c1OCc1nc2c3cnn(-c4ccccc4Br)c3ncn2n1`, the “activity, negative = inhibition” value was inactive: -29.3%.
For `COCCNC(=O)c1ccccc1NC(=O)c1ccccc1N(C)S(=O)(=O)c1ccc(C)cc1`, the Potency was inconclusive: 20 µM [inhibitor, single point].
For `O=C1CCC(=O)N1OCCCOc1ccccc1`, the “activity, negative = inhibition” value was inactive: 12.8% [at 102 µM].
In the case of `CC1=N/C(=C/c2ccco2)C(=O)O1`, the Potency is reported as active: 28.2 µM.
With `Cc1c(C2Nc3ccccc3NC3=C2C(=O)CC(C)(C)C3)cnn1C` (stereo not given) the Potency was inconclusive: 39.8 µM [inhibitor, single point].
For `CCC(CC)C(=O)Nc1nnc2n1CCS2`, the Potency was inconclusive: 10 µM [inhibitor, partial curve, poor fit].
For `CCN1CCN(C(=O)CCc2nc3ccccc3n2-c2ccccc2)CC1`, the Potency was inconclusive: 31.6 µM [inhibitor, single point].
With `Cc1ccc2c(c1)c1c3n2CCN(C(=O)CN2CCN(C)CC2)C3CCC1` (stereo not given) the Potency was active: 44.7 µM.
With `COc1ccc2oc(C(=O)OCC(=O)N3CC(C)CC(C)C3)c(C)c2c1` (stereo not given) the activity, negative = inhibition was inconclusive: -87.6% [inhibitor] [at 2.33 µM].
`Cc1ccc(C)c(S(=O)(=O)N/N=C/c2ccc(F)cc2)c1` was tested, and the Potency was active: 11.2 µM.
`CCCN(CCC)CC(O)Cn1cc(/C=C/C(=O)c2ccccc2)c2ccccc21` (stereo not given) was tested, and the Potency was inconclusive: 89.1 µM [inhibitor, single point].
In the case of `COc1ccc(-c2nc(S(=O)(=O)c3ccccc3)c(N3CCOCC3)o2)cc1`, the Potency is reported as inconclusive: 28.2 µM [inhibitor, single point].
`O=S(=O)(c1ccc(Br)c2nsnc12)N1CCOCC1` was tested, and the Potency was inconclusive: 89.1 µM [inhibitor, single point].
With `COc1ccc(-c2c(C)nn3c(-c4ccccc4)cc(-c4ccccc4)nc23)cc1OC` the Potency was inconclusive: 0.794 µM [inhibitor, full curve, poor fit].

Reference: PubChem BioAssay AID504332 (National Center for Advancing Translational Sciences (NCATS), 2011)
% is scaled to controls: 0 for no effect and ±100 for the full control effect; potency is read from the fitted curve at half-maximal effect; tags tell the direction and shape of the fitted curve.
Also: nearly all actives have a fitted effect of over 75% in size.
